Patent US20220402862A1 (Intellia Therapeutics, Inc., priority 2019, published 2022)
Values joined by “and” are separate entries in the source; they are usually repeats but may differ in a detail not shown here. Equal entries are not always repeated. The name of at least one read-out is uncertain.

Legend:
mouse B2M gene = assay: In vivo editing in mouse liver, sgRNA targeting B2M (G650), % indel by NGS; design: species or system CD-1 female mice; details: guide G650 (mouse B2M gene), LNP 50/9/38/3, N/P about 6, NGS, experiments 11-15
Procedure: CD-1 female mice ranging from 6-10 weeks of age were used in each study. Animals were weighed and grouped according to body weight for preparing dosing solutions based on group average weight. LNPs were dosed via the lateral tail vein in a volume of 0.2 mL per animal (approximately 10 mL per kilogram body weight). The animals were periodically observed for adverse effects for at least 24 hours post dose. For studies measuring in vivo editing in liver, CD-1 female mice were dosed at 0.1 mg/kg unless otherwise noted. Animals were euthanized at 6 or 7 days by ex sanguination via cardiac puncture under isoflurane anesthesia. Liver tissue was collected from each animal for DNA extraction and analysis. Blood was collected into serum separator tubes or into tubes containing buffered sodium citrate for plasma as described herein. Cohorts of mice were measured for editing by Next-Generation Sequencing (NGS).
In brief, to quantitatively determine the efficiency of editing at the target location in the genome, genomic DNA was isolated and deep sequencing was utilized to identify the presence of insertions and deletions introduced by gene editing.
PCR primers were designed around the target site (e.g., within B2M), and the genomic area of interest was amplified. Additional PCR was performed according to the manufacturer's protocols (Illumina) to add the necessary chemistry for sequencing. The amplicons were sequenced on an Illumina MiSeq instrument. The reads were aligned to the mouse or rat reference genome (e.g., GRCm38) after eliminating those having low quality scores. The resulting files containing the reads were mapped to the reference genome (BAM files), where reads that overlapped the target region of interest were selected and the number of wild type reads versus the number of reads which contain an insertion, substitution, or deletion was calculated.
The editing percentage (e.g., the “indel efficiency” or “percent indels”) was defined as the total number of sequence reads with insertions or deletions over the total number of sequence reads, including wild type.
We assessed in vivo editing efficiency for materials delivered with formulations including various amine lipid compounds. Editing was measured using either G282 (SEQ ID No: 1) which targets the mouse TTR gene or G650 (SEQ ID No. 2) which targets the mouse B2M gene. Lipids described above were assessed for efficacy through in vivo editing experiments. LNPs were formulated at a 1:1 or 1:1.3 w/w ratio of sgRNA to Cas9 mRNA, and at an N/P ratio of about 6. Molar concentrations of lipids in the lipid component of the LNPs are used at mol % amine lipid/DSPC/cholesterol/PEG-2k-DMG of 50/9/38/3. The final LNPs were characterized to determine the encapsulation efficiency, polydispersity index, and average particle size according to the analytical methods provided above. Analysis of average particle size, polydispersity (PDI), total RNA content and encapsulation efficiency of RNA are shown in Table 2.
Alternatively, Cas9 mRNA of Example 120 was formulated as LNPs with an sgRNA targeting B2M (G650, SEQ ID NO: 2) These LNPs were formulated at a w/w ratio of a sgRNA and Cas9 mRNA as indicated in Table 4. The LNPs were formulated using the cross flow procedure with lipid molar compositions of mol % amine lipid/DSPC/cholesterol/PEG-2k-DMG of 50/9/38/3 and an N/P ratio of 6.0. […]
CD-1 female mice were dosed i.v. at 0.1, 0.3, or 1 mg/kg and assessed for editing in liver, spleen, and bone marrow.

mouse TTR gene = assay: In vivo editing in mouse liver, sgRNA targeting TTR (G282 or G502), % indel by NGS; design: species or system CD-1 female mice
Outline: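 Female CD-1 mice, 6–10 weeks, given a single i.v. tail-vein dose of LNPs carrying Cas9 mRNA plus TTR sgRNA (G282 or G502), at several dose levels. Liver collected at 6 or 7 days; percent indels = reads with insertions or deletions over total reads, by amplicon NGS.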

[1] = guide G282 (mouse TTR gene), LNP 50/9/38/3 amine lipid/DSPC/cholesterol/PEG-2k-DMG, N/P about 6, NGS, experiments 1-10, 16-20

Compound | Editing Mean % Indel (mouse B2M gene) | Editing Mean % Indel (mouse TTR gene; LNP i.v. 0.1 mg/kg, guide G282, Experiments 101-103, 0.1 mg/kg) | Editing Mean % Indel (mouse TTR gene; LNP i.v. 0.3 mg/kg, guide G282, Experiments 101-103, 0.3 mg/kg) | Editing Mean % Indel (mouse TTR gene; guide G502, i.v. 0.1 mg/kg, sgRNA:Cas9 mRNA 1:2 w/w, experiments 106, 107, 0.1 mg/kg) | Editing Mean % Indel (mouse TTR gene; [1])
CCCCC/C=C\C/C=C\CCCCCCCC(=O)OCC(COC(=O)CCC(OCCCCCCCC)OCCCCCCCC)COC(=O)OCCCN(CC)CC (stereo not shown) [Compound 1, 3-((4,4-bis(octyloxy)butanoyl)oxy)-2-((((3-(diethylamino)propoxy)carbonyl)oxy)methyl)propyl (9Z,12Z)-octadeca-9,12-dienoate, reference compound] | 14.8% and 13.6% and 10.2% and 15.7% and 16.1% | 23.1% and 36.4% and 21.6% | 58.3% and 67.4% and 54.9% | 32.8% and 42.9% | –
CCCCC/C=C\C/C=C\CCCCCCCC(=O)OCC(COC(=O)CCC(OCCCCCCCC)OCCCCCCCC)COC(=O)OCCC1CCCN1C (stereo not shown) [Compound 24, 3-((4,4-bis(octyloxy)butanoyl)oxy)-2-((((2-(1-methylpyrrolidin-2-yl)ethoxy)carbonyl)oxy)methyl)propyl (9Z,12Z)-octadeca-9,12-dienoate] | 25.8% | – | – | – | 34.2% and 43.2%
CCCCC/C=C\C/C=C\CCCCCCCC(=O)OCC(COC(=O)CCCN(CC)CC)COC(=O)CCC(OCCCCCCCC)OCCCCCCCC (stereo not shown) [Compound 29, 3-((4,4-bis(octyloxy)butanoyl)oxy)-2-(((4-(diethylamino)butanoyl)oxy)methyl)propyl (9Z,12Z)-octadeca-9,12-dienoate] | 19.7% | – | – | – | 18.4%
CCCCC/C=C\C/C=C\CCCCCCCC(=O)OCC(COC(=O)CCC(OCCCCCCCC)OCCCCCCCC)COC(=O)C1CCN(C)CC1 (stereo not shown) [Compound 31, 3-((4,4-bis(octyloxy)butanoyl)oxy)-2-((((9Z,12Z)-octadeca-9,12-dienoyl)oxy)methyl)propyl 1-methylpiperidine-4-carboxylate] | 24.5% | – | – | – | 26.7%
CCCCCC/C=C\COC(=O)CCCCCCCC(=O)OCC(COC(=O)CCC(OCCCCCCCC)OCCCCCCCC)COC(=O)OCCCN(CC)CC (stereo not shown) [Compound 54, (Z)-1-(3-((4,4-bis(octyloxy)butanoyl)oxy)-2-((((3-(diethylamino)propoxy)carbonyl)oxy)methyl)propyl) 9-(non-2-en-1-yl) nonanedioate] | 27.6% | – | – | – | 27.0% and 46.7%
CCCCCC/C=C\COC(=O)CCCCCC(=O)OCC(COC(=O)CCC(OCCCCCCCC)OCCCCCCCC)COC(=O)OCCCN(CC)CC (stereo not shown) [Compound 55, (Z)-1-(3-((4,4-bis(octyloxy)butanoyl)oxy)-2-((((3-(diethylamino)propoxy)carbonyl)oxy)methyl)propyl) 7-(non-2-en-1-yl) heptanedioate] | 30.2% | – | – | – | 31.5%
CCCCCCCCCCOC(=O)CCCCCCCC(=O)OCC(COC(=O)CCC(OCCCCCCCC)OCCCCCCCC)COC(=O)OCCCN(CC)CC (stereo not shown) [Compound 59, 1-(3-((4,4-bis(octyloxy)butanoyl)oxy)-2-((((3-(diethylamino)propoxy)carbonyl)oxy)methyl)propyl) 9-decyl nonanedioate] | 19.7% | – | – | – | 39.0% and 31.8% and 35.6%
